According to PubChem BioAssay AID624296 (National Center for Advancing Translational Sciences (NCATS), 2012):
In all, about 350,000 compounds went through this assay and about 9,900 (2.8%) were called active. The shares of active, inactive and inconclusive entries below differ from those in the screen. The call rests on the fitted dose curve; in most records, active means well fitted activation curve with a large enough effect; inconclusive means small, poorly fitted or top-dose-only effect; inactive means no such curve, though single readings can be large or run the other way. Potencies of inconclusive entries are left out as doubtful fits.

Assay: A quantitative high throughput screen for small molecules that induce DNA re-replication in MCF 10a normal breast cells. Further: nearly all actives have a fitted effect of over 50% in size. On activity, positive = re-replication: % of control where 0% means no effect.
Conditions: MCF 10A DNA re-replication, Hoechst nuclear intensity, 48 h
[1] = activity, positive = re-replication: at 46.1 µM (top of the series)
Potency means the concentration at half of the fitted maximal effect; tags describe the fitted curve by direction and shape.

SMILES: Cc1cc2cccc(C)c2nc1SCC(=O)N(C)c1nc(-c2ccccc2)cs1
- Potency [1]: inconclusive [activator, partial curve, poor fit]

SMILES: CCOC(=O)C1(Cc2ccc(OC)cc2)CCN(C(=O)c2cccc3nccnc23)CC1
- Potency [1]: inactive

SMILES: Cc1ccc(S(=O)(=O)NCc2ccccc2)cc1C(=O)N1CCCC(C(F)(F)F)C1 (stereo not drawn)
- Potency [1]: inactive

SMILES: Cc1ccc(NC(=O)CNC(=O)CC23CC4CC(CC(C4)C2)C3)c(O)c1
- Potency [1]: inconclusive [activator, partial curve, poor fit]

SMILES: Cc1nc2ccccc2c(=O)n1-c1cccc(NC(=O)c2cccs2)c1
- Potency [1]: inactive

SMILES: CC1C/C(=C\c2cccnc2)C(=O)/C(=C/c2cccnc2)C1 (stereo not drawn)
- Potency [1]: inconclusive [activator, full curve]

SMILES: O=C(Cc1cccc2ccccc12)NC(NC(=S)Nc1ccccc1Cl)C(Cl)(Cl)Cl (stereo not drawn)
- Potency [1]: inconclusive [activator, full curve]

SMILES: CCN(CC)CCCOc1ccc(C)cc1Br
- Potency [1]: inconclusive [activator, partial curve, poor fit]

SMILES: CC1(C)C2CCC1(CS(=O)(=O)N1CCCc3ccccc31)C(=O)C2 (stereo not drawn)
- Potency [1]: inconclusive [activator, single point]

SMILES: Cc1ccc(S(=O)(=O)n2nc(OC(=O)c3c(-c4ccccc4Cl)noc3C)cc2N)cc1
- Potency [1]: inconclusive [activator, single point]

SMILES: c1ccc(Nc2nc(NCC3CCCO3)c3ccccc3n2)cc1 (stereo not drawn)
- Potency [1]: inconclusive [activator, partial curve, poor fit]

SMILES: Cn1c(/C=N/O)nc2ccccc21
- Potency [1]: inactive

SMILES: Cc1cccc(-n2c(SCC(=O)N3CCCC3)nnc2-c2ccccn2)c1C
- Potency [1]: inactive

SMILES: O=C(/C=C/c1cccnc1)c1cccc(O)c1
- Potency [1]: inconclusive [activator, single point]

SMILES: Cc1ccc(-n2c(-c3ccco3)nc3c(cnn3-c3ccc(C)cc3)c2=O)cc1
- Potency [1]: inconclusive [activator, partial curve, poor fit]

SMILES: FC(F)(F)c1nnc2c(Sc3ccccn3)nc3ccccc3n12
- Potency [1]: inconclusive [activator, single point]

SMILES: Cc1c(C(=O)Nc2cc(S(=O)(=O)N3CCOCC3)ccc2N2CCN(C)CC2)oc2ccccc12
- Potency [1]: inactive

SMILES: CC1CCc2c(sc(NC(=O)c3ccc(-c4ccccc4[N+](=O)[O-])o3)c2C#N)C1 (stereo not drawn)
- Potency [1]: inactive

SMILES: CCN1CCN(c2nc(Nc3ccc(OC)cc3)nc(N)c2[N+](=O)[O-])CC1
- Potency [1]: inactive

SMILES: Cc1ccc2c(c1)C(=O)C(=O)N2CC(=O)Nc1ccccc1NC(=O)c1ccccn1
- Potency [1]: active: 13 µM

SMILES: CCCOc1cccc(C2C(C(=O)c3ccco3)=C(O)C(=O)N2CCCn2ccnc2)c1 (stereo not drawn)
- Potency [1]: inconclusive [activator, partial curve, poor fit]

SMILES: CCn1c(SCCC(=O)Nc2ccccc2)nnc1-c1ccc(OC)cc1
- Potency [1]: inactive

SMILES: COc1cc(Cl)ccc1NC(=S)N(CCCN1CCOCC1)Cc1cn(C)c2ccccc12
- Potency [1]: inconclusive [activator, single point]

SMILES: CCCc1nc(SCC(=O)N2CCOCC2)c2c(C)c(C)sc2n1
- Potency [1]: inconclusive [activator, partial curve]

SMILES: CCCOc1ccccc1NC(=O)Nc1ccccc1Cl
- Potency [1]: inconclusive [activator, single point]

SMILES: COCCCN1C(=O)N(c2ccc(F)cc2)C(=O)C1CC(=O)Nc1ccc(OC)cc1 (stereo not drawn)
- Potency [1]: inconclusive [activator, single point]

SMILES: CCCCn1c(-c2cccc3ccccc23)nc2cc3[nH]c(=O)c(C(C)C)nc3cc21
- Potency [1]: inconclusive [activator, single point]

SMILES: O=C(Nc1ccccc1F)c1ccc(CSc2ccccc2)o1
- Potency [1]: inconclusive [activator, single point]

SMILES: O=C(O)c1ccc(S(=O)(=O)c2ccc([N+](=O)[O-])cc2[N+](=O)[O-])cc1
- Potency [1]: inconclusive [activator, single point]

SMILES: O=C(O)c1cc(NN=Nc2cccc([N+](=O)[O-])c2)cc([N+](=O)[O-])c1
- Potency [1]: inconclusive [activator, single point]

SMILES: O=C(NNC(=O)c1ccc(Oc2cc(Cl)cc(Cl)c2)o1)c1ccccc1
- Potency [1]: inconclusive [activator, single point]

SMILES: COc1cccc(Nc2nnc(SCC(=O)Nc3sccc3C(N)=O)s2)c1
- Potency [1]: inconclusive [activator, single point]

SMILES: O=C(N=Nc1c(O)n(Cc2ccccc2)c2ccccc12)c1ccc(O)cc1
- Potency [1]: inactive

SMILES: Cc1cnc(NC(=O)COc2ccccc2Cl)s1
- Potency [1]: inactive

SMILES: Cc1ccccc1-c1ccccc1CN1[C@@H](C(C)C)COCCS1(=O)=O
- Potency [1]: inconclusive [activator, single point]

SMILES: Cc1sc2nc(-c3ccccn3)[nH]c(=O)c2c1-c1ccccc1
- Potency [1]: inconclusive [activator, single point]

SMILES: Cc1cc(C2(c3ccc(O)c(C)c3)OC(=O)c3ccccc32)ccc1O
- Potency [1]: inconclusive [activator, single point]

SMILES: CCOc1ccc(NC(=S)N2CCC(C(=O)c3ccc(F)cc3)CC2)cc1
- Potency [1]: inconclusive [activator, partial curve, poor fit]

SMILES: COc1ccc(S(=O)(=O)N2CCCCCC2)cc1C(=O)NCCc1ccccc1
- Potency [1]: inconclusive [activator, single point]

SMILES: CCCCOc1ccc(C(O)(CCC)CCN2CCOCC2)cc1 (stereo not drawn)
- activity, positive = re-replication [1]: inconclusive: -94.5% [activator]
- activity, positive = re-replication (at 46.1 µM (top of the series)): inactive: 10.6%

SMILES: O=C(Nc1ccc(Cl)cc1)C(Cl)C(=O)c1ccccc1 (stereo not drawn)
- Potency [1]: inconclusive [activator, single point]

SMILES: O=C(CC12CC3CC(CC(C3)C1)C2)NCc1ccco1
- Potency [1]: inconclusive [activator, full curve]

SMILES: CCOC(=O)c1c(NC(=O)CSc2nnnn2-c2ccc3c(c2)OCCO3)sc(C)c1C
- Potency [1]: active: 18.4 µM

SMILES: O=c1c2cc(NC(=S)NC3CCCCC3)ccc2nc2n1CCCCC2
- Potency [1]: inactive

SMILES: N#Cc1sc2nccc(Nc3ccccc3)c2c1N
- Potency [1]: inconclusive [activator, single point]

SMILES: COc1ccc2ccccc2c1/C=N/NC(=S)Nc1cc(S(=O)(=O)N2CCOCC2)ccc1N1CCOCC1
- Potency [1]: inconclusive [activator, single point]

SMILES: O=C(O)Cc1sc(NC2CCCCC2)nc1-c1ccc(Cl)cc1
- Potency [1]: inconclusive [activator, single point]

SMILES: O=C(COc1cccc(Cl)c1)Nc1nc(-c2ccc(S(=O)(=O)N3CCOCC3)cc2)cs1
- Potency [1]: inconclusive [activator, single point]

SMILES: COc1ccc(C(=O)CC(Nc2ccc([N+](=O)[O-])cc2)c2ccc(Cl)cc2)cc1 (stereo not drawn)
- Potency [1]: inactive

SMILES: O=C(CCc1nc2sc3c(c2c(=O)[nH]1)CCCC3)Nc1cccc(Cl)c1
- Potency [1]: inconclusive [activator, partial curve, poor fit]

SMILES: Cc1ccc(-c2cc(=O)c3cc(C)ccc3[nH]2)cc1
- Potency [1]: inconclusive [activator, partial curve, poor fit]

SMILES: O=C(c1ccccc1)N1CCN=C1c1ccccc1
- Potency [1]: inconclusive [activator, partial curve, poor fit]

SMILES: CC(=O)c1c(C)[nH]c(C(=O)COC(=O)c2c(-c3ccccc3)noc2C)c1C
- Potency [1]: inconclusive [activator, single point]

SMILES: Cc1ccccc1NC(=O)/C=C1\SC(=O)NC1=O
- Potency [1]: active: 23.1 µM

SMILES: CCn1c(C)nc2cc(C(=O)NNS(=O)(=O)c3c(F)cc(F)c(Cl)c3F)ccc21
- Potency [1]: inconclusive [activator, partial curve, poor fit]

SMILES: Oc1ccc(N=Nc2n[nH]c(-c3ccccc3)n2)cc1
- Potency [1]: inconclusive [activator, partial curve, poor fit]

SMILES: Cc1c(C(=O)Nc2ccccn2)oc2ccccc12
- Potency [1]: inconclusive [activator, single point]

SMILES: COc1ccc(C)cc1NS(=O)(=O)c1ccc2c(c1)oc(=O)n2C
- Potency [1]: inactive

SMILES: COc1cc(/C=N/Nc2ccc([N+](=O)[O-])cn2)cc(OC)c1O
- Potency [1]: active: 20.6 µM

SMILES: Cc1cc(C)n(C(=O)c2ccccc2[N+](=O)[O-])n1
- Potency [1]: inconclusive [activator, single point]

SMILES: O=C(NCCCCc1ccccc1)C1CC(c2ccccc2C(F)(F)F)=NO1 (stereo not drawn)
- Potency [1]: inconclusive [activator, single point]

SMILES: COC(=O)c1sccc1NC(=O)CSc1nnnn1-c1ccccc1F
- Potency [1]: inconclusive [activator, single point]

SMILES: NC(=O)Cn1cnc2c(nnn2-c2ccc(F)cc2)c1=O
- Potency [1]: inactive

SMILES: COc1ccc(CNC(=O)[C@@H]2CC=C[C@@H]3CCN(Cc4ccc(Cl)c(Cl)c4)C(=O)[C@@H]32)cc1
- Potency [1]: inconclusive [activator, single point]

SMILES: Nc1c(C(=O)c2ccccc2)oc2ccccc12
- Potency [1]: active: 12.6 µM

SMILES: COc1ccc(N2C(=O)[C@@H]3[C@H](C2=O)[C@H]2c4ccccc4C=CN2[C@@H]3C(C)=O)cc1
- Potency [1]: inconclusive [activator, single point]

SMILES: Cc1ccc(Nc2c(-c3ccc(N4CCOCC4)cc3)nc3ncccn23)cc1C
- Potency [1]: inconclusive [activator, single point]
